# The supplement of paper PMC8728848
# This is one part of the list.
# B1: Si Bti9 1b-HA (Solanum lycopersicum) (protein)
# chain: MFESRPRSVLSLGVFVILVYLSSVPLPVNSQCNRGCDLALASFYVWRGSNLTLISEMFSTSIADIVSYNNRDNIPNQDSVIAGTRINIPFRCDCLNDGEVLGHAFPYRVKSGDTYDLVARNYSDLTTAQWMMKFNSYPENNIPNTVNLSVVVNCSCGNSDVSKDFGLFVTYPVRAEDNLTSVASAANVSEDIIRRYNPAAVSILDIGQGIIYIPGRDRNGNFPPLPTSTDGLSGGAKAPLFFNPAFLYKVVELKLAGRSRTSGYPYDVPDYAGYPYDVPDYALEVLFQ
# Assays:
# Test in all cases: glycan array binding signal (z-score within array); higher = stronger binding
# Conditions in all cases: glycan notation: IUPAC condensed, linker removed
# [1] = target: Neu5Ac(a2-6)GlcNAc(b1-4)GlcNAc(b1-4)GlcNAc
# In short: (§1)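 Glycan array data came from 3228 arrays in the Consortium for Functional Glycomics database, and only arrays with an available protein sequence were kept. Glycan names were put into IUPAC-condensed notation, and columns mapping to the same glycan were averaged. The binding signal is a within-array Z-score, averaged across arrays of one protein sequence run at different concentrations or buffers and across linkers. A negative Z-score can be read as non-binding.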
# Neu5Ac(a2-8)Neu5Ac = target: Neu5Ac(a2-8)Neu5Ac
# In short: as §1
# [2] = target: Neu5Ac(a2-8)Neu5Ac(a2-3)Gal(b1-3)GalNAc(b1-4)[Neu5Ac(a2-3)]Gal(b1-4)Glc
# In short: as §1
# [3] = target: Neu5Ac(a2-8)Neu5Ac(a2-3)Gal(b1-3)GalNAc(b1-4)[Neu5Ac(a2-8)Neu5Ac(a2-3)]Gal(b1-4)Glc
# In short: as §1
# [4] = target: Neu5Ac(a2-8)Neu5Ac(a2-3)Gal(b1-4)Glc
# In short: as §1
# [5] = target: Neu5Ac(a2-8)Neu5Ac(a2-3)Gal(b1-4)GlcNAc
# In short: as §1
# [6] = target: Neu5Ac(a2-8)Neu5Ac(a2-3)[Gal(b1-3)GalNAc(b1-4)]Gal(b1-4)Glc
# In short: as §1
# [7] = target: Neu5Ac(a2-8)Neu5Ac(a2-3)[GalNAc(b1-4)]Gal(b1-4)Glc
# In short: as §1
# [8] = target: Neu5Ac(a2-8)Neu5Ac(a2-8)Neu5Ac
# In short: as §1
# [9] = target: Neu5Ac(a2-8)Neu5Ac(a2-8)Neu5Ac(a2-3)Gal(b1-4)Glc
# In short: as §1
# [10] = target: Neu5Ac(a2-8)Neu5Ac(a2-8)Neu5Ac(a2-3)[Gal(b1-3)GalNAc(b1-4)]Gal(b1-4)Glc
# In short: as §1
# [11] = target: Neu5Ac(a2-8)Neu5Ac(a2-8)Neu5Ac(a2-3)[GalNAc(b1-4)]Gal(b1-4)Glc
# In short: as §1
# [12] = target: Neu5Ac(a2-8)Neu5Ac(a2-8)Neu5Ac(a2-8)Neu5Ac(a2-3)[GalNAc(b1-4)]Gal(b1-4)Glc
# In short: as §1
# [13] = target: Neu5Ac(a2-8)Neu5Gc(a2-3)Gal(b1-4)GlcNAc
# In short: as §1
# [14] = target: Neu5Ac(b2-6)Gal(b1-4)GlcNAc
# In short: as §1
# Neu5Ac(b2-6)GalNAc = target: Neu5Ac(b2-6)GalNAc
# In short: as §1
# [15] = target: Neu5Ac9Ac(a2-3)Gal(b1-3)GlcNAc
# In short: as §1
# [16] = target: Neu5Ac9Ac(a2-3)Gal(b1-4)GlcNAc
# In short: as §1
# [17] = target: Neu5Ac9Ac(a2-6)Gal(b1-4)GlcNAc
# In short: as §1
# [18] = target: Neu5Gc(a2-3)Gal(b1-3)GlcNAc
# In short: as §1
# [19] = target: Neu5Gc(a2-3)Gal(b1-3)[Fuc(a1-4)]GlcNAc
# In short: as §1
# Neu5Gc(a2-3)Gal(b1-4)Glc = target: Neu5Gc(a2-3)Gal(b1-4)Glc
# In short: as §1
# [20] = target: Neu5Gc(a2-3)Gal(b1-4)GlcNAc
# In short: as §1
# [21] = target: Neu5Gc(a2-3)Gal(b1-4)GlcNAc(b1-3)Gal(b1-4)GlcNAc(b1-2)Man(a1-3)[Neu5Gc(a2-3)Gal(b1-4)GlcNAc(b1-3)Gal(b1-4)GlcNAc(b1-2)Man(a1-6)]Man(b1-4)GlcNAc(b1-4)GlcNAc
# In short: as §1
# [22] = target: Neu5Gc(a2-3)Gal(b1-4)[Fuc(a1-3)]GlcNAc
# In short: as §1
# [23] = target: Neu5Gc(a2-6)Gal(b1-4)GlcNAc
# In short: as §1
# Neu5Gc(a2-6)GalNAc = target: Neu5Gc(a2-6)GalNAc
# In short: as §1
# [24] = target: Neu5Gc(a2-8)Neu5Ac(a2-3)Gal(b1-4)GlcNAc
# In short: as §1
# [25] = target: Neu5Gc(a2-8)Neu5Gc(a2-3)Gal(b1-4)GlcNAc
# In short: as §1
# [26] = target: Neu5Gc(a2-8)Neu5Gc(a2-3)Gal(b1-4)GlcNAc(b1-3)Gal(b1-4)GlcNAc
# In short: as §1
# [27] = target: Neu5Gc(a2-8)Neu5Gc(a2-6)Gal(b1-4)GlcNAc
# In short: as §1
# [28] = target: Neu5Gc(b2-6)Gal(b1-4)GlcNAc
# In short: as §1
binder,measurement,setting,value
B1,glycan array binding signal (z-score),[1],-0.401
same,glycan array binding signal (z-score),Neu5Ac(a2-8)Neu5Ac,-0.251
same,glycan array binding signal (z-score),[2],-0.196
same,glycan array binding signal (z-score),[3],-0.079
same,glycan array binding signal (z-score),[4],0.02
same,glycan array binding signal (z-score),[5],-0.499
same,glycan array binding signal (z-score),[6],-0.273
same,glycan array binding signal (z-score),[7],-0.411
same,glycan array binding signal (z-score),[8],-0.43
same,glycan array binding signal (z-score),[9],-0.184
same,glycan array binding signal (z-score),[10],-0.014
same,glycan array binding signal (z-score),[11],-0.298
same,glycan array binding signal (z-score),[12],-0.344
same,glycan array binding signal (z-score),[13],-0.539
same,glycan array binding signal (z-score),[14],-0.106
same,glycan array binding signal (z-score),Neu5Ac(b2-6)GalNAc,-0.222
same,glycan array binding signal (z-score),[15],0.769
same,glycan array binding signal (z-score),[16],-0.425
same,glycan array binding signal (z-score),[17],0.888
same,glycan array binding signal (z-score),[18],-0.505
same,glycan array binding signal (z-score),[19],-0.521
same,glycan array binding signal (z-score),Neu5Gc(a2-3)Gal(b1-4)Glc,-0.117
same,glycan array binding signal (z-score),[20],-0.219
same,glycan array binding signal (z-score),[21],0.133
same,glycan array binding signal (z-score),[22],-0.427
same,glycan array binding signal (z-score),[23],0.078
same,glycan array binding signal (z-score),Neu5Gc(a2-6)GalNAc,-0.192
same,glycan array binding signal (z-score),[24],-0.4
same,glycan array binding signal (z-score),[25],-0.54
same,glycan array binding signal (z-score),[26],-0.452
same,glycan array binding signal (z-score),[27],-0.528
same,glycan array binding signal (z-score),[28],-0.472
